Experimental data published in publication PMC4336329 (PLoS ONE, 2015).
About 2,200 (0.71%) of roughly 310,000 compounds showed an effect of 50% or more. Effects have a minus sign here. This is one part of the list.

molecular target: human ether-à-go-go-related gene (hERG) potassium channel (human, UniProt Q12809); assay: primary screen, population patch clamp on CHO cells stably expressing hERG
Sequence (Q12809 whole entry, looked up): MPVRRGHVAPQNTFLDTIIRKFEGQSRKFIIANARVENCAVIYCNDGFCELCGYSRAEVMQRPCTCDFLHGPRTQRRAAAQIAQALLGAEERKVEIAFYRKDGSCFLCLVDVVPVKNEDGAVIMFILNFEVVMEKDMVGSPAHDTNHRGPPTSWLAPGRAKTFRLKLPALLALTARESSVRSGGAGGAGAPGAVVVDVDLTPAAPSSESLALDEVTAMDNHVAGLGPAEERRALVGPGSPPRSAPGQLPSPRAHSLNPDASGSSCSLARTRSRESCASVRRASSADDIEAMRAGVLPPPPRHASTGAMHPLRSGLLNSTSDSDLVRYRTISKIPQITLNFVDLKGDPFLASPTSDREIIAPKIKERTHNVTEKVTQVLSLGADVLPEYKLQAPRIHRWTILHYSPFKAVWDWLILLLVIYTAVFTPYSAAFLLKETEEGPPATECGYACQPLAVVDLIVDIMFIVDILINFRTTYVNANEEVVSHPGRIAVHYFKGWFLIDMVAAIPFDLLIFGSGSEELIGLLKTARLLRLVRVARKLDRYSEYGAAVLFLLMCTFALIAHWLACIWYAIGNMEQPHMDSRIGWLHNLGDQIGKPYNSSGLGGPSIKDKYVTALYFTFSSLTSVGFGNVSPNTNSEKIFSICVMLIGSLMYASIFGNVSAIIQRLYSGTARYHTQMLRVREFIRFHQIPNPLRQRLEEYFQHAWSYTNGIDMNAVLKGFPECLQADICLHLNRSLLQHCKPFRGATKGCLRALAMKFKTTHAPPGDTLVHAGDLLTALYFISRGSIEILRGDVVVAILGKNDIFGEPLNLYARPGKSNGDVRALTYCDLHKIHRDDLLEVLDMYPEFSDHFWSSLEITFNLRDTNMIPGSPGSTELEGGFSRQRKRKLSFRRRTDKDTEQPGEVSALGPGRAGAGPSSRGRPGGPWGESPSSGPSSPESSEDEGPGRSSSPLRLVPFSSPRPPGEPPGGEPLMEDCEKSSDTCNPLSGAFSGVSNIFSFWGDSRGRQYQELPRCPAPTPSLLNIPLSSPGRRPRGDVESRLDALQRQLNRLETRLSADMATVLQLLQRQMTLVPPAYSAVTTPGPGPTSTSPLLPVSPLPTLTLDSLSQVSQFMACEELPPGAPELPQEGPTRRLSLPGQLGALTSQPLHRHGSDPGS

SMILES	hERG current change (%, negative = inhibition) at 1uM
CN1CCN(CCC2Oc3cc([N+](=O)[O-])ccc3NC2=O)CC1 (stereo not drawn)	-5.52%
COc1cc(NC(=O)c2ccc(N)nc2)cc(C(=O)Nc2cccc(C(F)(F)F)c2)c1	8.56%
Cc1ccc(S(=O)(=O)N2CCCCC2)cc1C(=O)NCCCN1CCOCC1	10.9%
CCSc1nnc(NC(=O)[C@H](C)NC(=O)c2ccccc2Cl)s1	8.07%
c1ccc2c(c1)Sc1ccccc1-n1cnnc1-2	9.06%
Cc1ccc(N(CC(=O)NCCSc2ccccn2)S(=O)(=O)c2ccc(F)cc2)cc1	-7.62%
CCOC(=O)c1c(N)sc(C(=O)N2CCCC2)c1C	7.35%
O=[N+]([O-])c1ccc2nc(NS(=O)(=O)c3ccc(F)cc3)sc2c1	23.5%
COc1cc(/C=C(\C#N)C(=O)NC(C)C)cc(Cl)c1O	5.3%
Cc1c(Cl)cccc1NC(=S)N(C)CCC#N	14.3%
O=C(c1cc2ccccc2oc1=O)N(Cc1ccccc1F)C1CCS(=O)(=O)C1 (stereo not drawn)	6.28%
Cc1ccc(NC(=O)CSc2nc3ccccc3nc2N2CCOCC2)c(C)c1	12.5%
O=S(=O)(NCCCc1ccccc1)c1ccccc1	10.3%
CCNC(=S)NNC(=O)c1cc(C)on1	-2.59%
CCc1nn2c(=O)cc(COc3ccc(/C=C4\C(=N)N5N=C(CC(C)C)SC5=NC4=O)cc3)nc2s1	4.08%
CN(CCO)CC(O)Cn1cnc2c1c(=O)n(C)c(=O)n2C.O=C(O)c1cccnc1 (stereo not drawn)	11.7%
COc1ccccc1N1C(=O)C2CC(C)=C(C)CC2C1=O (stereo not drawn)	8.09%
CC1CN(C(=O)COc2ncnc3ccccc23)CC(C)O1 (stereo not drawn)	16.9%
COc1ccc(C(=O)C2CCCN(C(=O)c3cc(C(C)C)no3)C2)cc1F (stereo not drawn)	-4.78%

SMILES	hERG current change (%, negative = inhibition) at 1uM
CCn1c(SCC(=O)N2CCOCC2)nc2sc3c(c2c1=O)CCCC3	9.72%
CC(C)CN(C(=O)CSc1nc(-c2ccccc2)cn1N)c1c(N)n(Cc2ccccc2)c(=O)[nH]c1=O	9.84%
CCn1c(O)c(C=NCCN2CCOCC2)c(=O)[nH]c1=S	9.3%
CCN(CC)S(=O)(=O)c1cccc(C(=O)N[C@H](C(=O)O)C(C)C)c1	7.69%
O=C(Nc1ccc2c(c1)OCCO2)c1ccc2nccnc2c1	10.1%
CN(C)CCOC(=O)NC12CC3CC(CC(C3)C1)C2.Cl	4.92%
N#CCC(=O)N/N=C/c1cc(Br)ccc1OCc1cccc2ccccc12	8.94%
Cc1cccc(NC(=O)CSc2nc3ccc(NC(=O)CSc4nnnn4-c4ccccc4)cc3s2)c1C	7.86%
O=C(Nc1ccc(Cl)cc1Cl)Nn1cnnc1	5.21%
CC(=O)OC1c2ccccc2C(=O)N1c1ccccc1C (stereo not drawn)	1.81%
C=CCOc1ccnc(-c2ccccc2)n1	13.8%
OC(CN1CCOCC1)Cn1c2ccccc2c2ccccc21 (stereo not drawn)	11.5%
COc1ccc(OC)c(/C=N\NC(=O)CSc2nnc(CCCc3ccc(OC)c(C)c3)o2)c1	9.34%
CCOC(=O)N1CCN(C(=O)C2CCN(S(=O)(=O)c3cc(Cl)ccc3OCC)CC2)CC1	-11.7%
O=C(CSc1nnc2scc(-c3ccccc3)n12)Nc1nsc(-c2ccccc2)n1	-14.9%
COC(=O)c1cc(=O)n(Cc2ccc3c(c2)OCO3)c(=Nc2ccc(F)cc2)s1	16.2%
COc1ccc(CCNC2CC(=O)N(N(C)C)C2=O)cc1OC (stereo not drawn)	14.5%
Cc1cc(C)c(NC(=O)c2cc3c(nc4sccn43)s2)c(C)c1	10.5%
COc1ccc(CC(=O)N2CC(C)CC(C)C2)cc1 (stereo not drawn)	1.74%

SMILES	hERG current change (%, negative = inhibition) at 1uM
COc1ccc(NC(=O)CSc2ccc3ccccc3c2)cc1S(=O)(=O)N1CCCCC1	13.5%
Cc1ccc2c(c1)c(C)c(C)n2CC(O)CN1CCCCC1C (stereo not drawn)	-2.3%
Cc1ccc(CNC(=O)CCC2CCCN(Cc3cccc4ncccc34)C2)o1 (stereo not drawn)	4.33%
COc1ccc(S(=O)(=O)N2CCOCC2)cc1NC(=O)CSc1ccccc1	-6.94%
O=C(Nc1cccc(-c2cscn2)c1)C1CCN(Cc2ccc(CO)o2)CC1	7.16%
Cc1ccc(NN2C(=O)C=C(c3ccc(Cl)cc3)C2=O)cc1	12.8%
Cc1cc(C)nc(-n2ncc3c2CCCC3=O)n1	14%
O=C(CCC1CCCN(c2ncccn2)C1)N1CCN(c2ccccn2)CC1 (stereo not drawn)	-0.0423%
Cc1nc2c(=O)oc3ccccc3c2n1-c1ccccc1	6.98%
CNc1cc(CS(=O)c2ccccc2)nc(-c2ccccc2)n1 (stereo not drawn)	15.4%
CCn1cc(C(=O)NCCC2=CCCCC2)c(=O)c2cc(S(=O)(=O)N(C)C)ccc21	-5.95%
O=C(NCc1ccccn1)C1CCCN(Cc2cnn(-c3ccccc3)c2-n2cccc2)C1 (stereo not drawn)	-0.433%
Cc1nn2cnnc2c(C)c1Cc1c(F)cccc1Cl	7.19%
COc1cccc(CNC(=O)CCC2CCCN(C(=O)C3CCOCC3)C2)c1 (stereo not drawn)	3.23%
Cc1ccc(S(=O)(=O)NC(=O)COc2ccccc2C)cc1	15.8%
COCCNC(=O)c1cccc(OC2CCN(Cc3ccc(F)c(OC)c3)CC2)c1	4.26%
CCC(=O)N1CCc2cc(S(=O)(=O)CCC(=O)Nc3ccc(OC)c(OC)c3)ccc21	12.4%
Cc1ccccc1C(=O)Nc1ccc(O)cc1C(=O)O	8.33%
Cc1ccc(-c2cc(C(F)F)n3ncc(C(=O)Nc4c(C)nn(Cc5ccccc5Cl)c4C)c3n2)cc1	9.38%
